Experiment [1] has as its target T1, AAT-6 C-terminus tail corresponding to residues 487–523 (two-hybrid bait) (C. elegans) (UniProt Q22397).
T1 sequence: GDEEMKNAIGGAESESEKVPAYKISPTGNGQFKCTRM
Nature of the experiment: two-hybrid; LexA-based GFP yeast two-hybrid (Glow'n'Grow, MoBiTec) in EGY48; AAT-6 tail in pEG202 as bait, PDZ protein as prey; reporters LEU2 (growth without leucine) and GFP.

Experiment [2] addresses T2, AAT-6 C-terminus tail without PDZ binding motif (ΔTRM), two-hybrid bait (C. elegans) (UniProt Q22397).
T2 sequence: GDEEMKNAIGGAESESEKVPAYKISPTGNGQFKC
Described as above.

In experiment [3] the target is T3, GST fusion of AAT-6 C-terminus tail without PDZ binding motif (C. elegans) (UniProt Q22397).
T3 sequence: T2 sequence
Nature of the experiment: condition: 5 µg NRFL-1 protein with 2 µg GST fusion protein; pull-down; GST pull-down: 2 µg GST fusion protein and 5 µg recombinant 3×FLAG-NRFL-1, overnight at 4°C in 50 mM Tris pH 7.4, 150 mM NaCl, 5 mM EDTA, 0.1% NP-40; blot with anti-FLAG; both purified.

Experiment [4] concerns the target T4, AAT-6(1–517)-4×G::GFP::4×G-FKCTRM (C. elegans) (UniProt Q22397).
T4 sequence: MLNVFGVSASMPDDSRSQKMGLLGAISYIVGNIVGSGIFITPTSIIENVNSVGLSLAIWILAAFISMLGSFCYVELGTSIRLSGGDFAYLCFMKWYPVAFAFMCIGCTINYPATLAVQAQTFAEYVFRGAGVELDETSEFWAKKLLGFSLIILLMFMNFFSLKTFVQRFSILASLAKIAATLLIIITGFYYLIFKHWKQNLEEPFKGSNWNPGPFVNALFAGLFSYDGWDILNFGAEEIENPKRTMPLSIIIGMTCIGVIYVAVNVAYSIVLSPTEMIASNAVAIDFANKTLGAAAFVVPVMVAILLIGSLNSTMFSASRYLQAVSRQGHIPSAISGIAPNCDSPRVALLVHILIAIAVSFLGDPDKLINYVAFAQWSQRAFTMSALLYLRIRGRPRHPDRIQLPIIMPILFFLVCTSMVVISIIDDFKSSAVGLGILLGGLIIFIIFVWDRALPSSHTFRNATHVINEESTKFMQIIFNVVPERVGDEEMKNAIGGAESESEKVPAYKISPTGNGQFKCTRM
The experiment can be described thus: co-IP; worm lysate with 0.5% Triton X-100, 100 mM NaCl and phosphatase inhibitors; anti-GFP mouse monoclonal antibody and Protein G; blot with anti-NRFL-1.

Experiment [5] deals with T5, GST fusion of AAT-6 C-terminus tail corresponding to residues 487–523 (C. elegans) (UniProt Q22397).
T5 sequence: T1 sequence
Nature of the experiment: condition: 5 µg NRFL-1 protein with 2 µg GST fusion protein; pull-down; GST pull-down: 2 µg GST fusion protein and 5 µg recombinant 3×FLAG-NRFL-1, overnight at 4°C in 50 mM Tris pH 7.4, 150 mM NaCl, 5 mM EDTA, 0.1% NP-40; blot with anti-FLAG; both purified.

Numbering of substitutions follows the chain as printed. Numbers in names are those of the source. No constants are given. Whether binding was seen depends on the method and setting. For some of these results: Binding seen in cells or lysates may run through a third protein. Some results given as binding are weak or reduced against the parent protein; the word gives no strength. For some of these results: Where a sequence is shown, tags or fusion partners need not be part of it.

B1: NRFL-1 (C01F6.6a), full-length, two-hybrid prey (protein, UniProt G5EDM4 1-467)
chain: MVHIPSDVTPPRLCVVEKLNGENEYGYNLHAEKGRGQFVGTVDPDSPAERGGLITGDRIFAVNGHSIIGENHKKVVERIKANPNRCEMLVISEEGAKWYNENNVQITLDLPNIERVSPMSKETPVFVPPPPPPTDAMPYLPRLAELNKGTPDQEFGFNLHAERGRGHFIGTVDAGGIGEKAGLEAGQRIVGVNGQLIYPTTGHKEVVALIKKDTMKTTLLVASEDVDKYHKDHNIAYSWDNVERVDTRPVINVETHHHHEEVSVPKSNGYDVPPLNPHSIQVNEEREISKMTTTTRTETITNSNSAYQYKESSTAYDAYATPPVDSNDLMDEVFGRVNLPGVTMSSHTEVLPPTDDISSVSSLSSHRESAVDVPVSHQYVPSYATESHQKHEQHSQTHHHHHQHQQPSPLSNGSSHGYAASSTSGYDDDDIYHLSAREARERLRMKNRKHHLHEMSLNEKYQLVSNM
Consider B1, for which the binding entry in experiment [1] was “binds”; in experiment [2] it was “no binding”.

B2: 3×FLAG-NRFL-1 (wild type) (protein, UniProt G5EDM4 1-467)
chain: B1 chain
Consider B2, for which the binding result in experiment [3] was “no binding”.

B3: endogenous NRFL-1 of C. elegans (protein, UniProt G5EDM4 1-467)
chain: B1 chain
modifications: phosphorylated in vivo (sites not given)
Consider B3, for which, in experiment [4], the binding entry is “binds”.

B4: 3×FLAG-NRFL-1 with PDZ I/PDZ II both mutated (G26A/Y27A and E154A/F155A) (protein, UniProt G5EDM4 1-467)
chain: B1 chain with G26A, Y27A, E154A, F155A
With B4, the binding entry in experiment [5] is “no binding”.

B5: C25F6.2a (dlg-1), full-length, two-hybrid prey (protein, UniProt G5ECY0 1-967)
chain: MSHESSEKAHKAIENVEDYCQTLTRHGNEELRTNLERVITTFKSNLMHSLLDIHDLYEQTLLSERKSDAEKNMEVRRVIERLEGGPHSYNSRPAATTSTSNYNLSSTTPLISDLRDRGGFSYLNGGGLGNGLGNGLGNGLLSSPYNSSSTHYLHERQRQTSHDGTWRETTTRTVDTPSGLERRVVEHTGVIDDHGRKWELENIVLEKGHTGLGFSITGGMDQPTEDGDTSIYVTNIIEGGAALADGRMRKNDIITAVNNTNCENVKHEVAVNALKSSGNVVSLSLKRRKDEAFLPIGGNFGGSTSYLRSGVTPSVSAGNLQHAIHSPSAPIHPPPPPPVHHGSLSQLSVGQYRSTRPNTSVIDLVKGARGLGFSIAGGQGNEHVKGDTDIYVTKIIEEGAAELDGRLRVGDKILEVDHHSLINTTHENAVNVLKNTGNRVRLLIQQGTGAIFNDSASQQFMPTTPILRPSSVQDYNRSQMGSQSHLSYGGPLNTSYSSQAPIAIPLEPRPVQLVKGQNGLGFNIVGGEDNEPIYISFVLPGGVADLSGNVKTGDVLLEVNGVVLRNATHKEAAEALRNAGNPVYLTLQYRPQEYQIFESKIEKLRNDVIAQSRMGTLSRKSEYVRALFDYDPSRENSVAPHRSMGFNYGDILHIINSSDDEWWTARKVHENGEETAEGVIPSKKRVEKRERLRRKQVNFNSGSQSLGRNSSTTGLENRRGSRSQLSFSRKFPFVKSTDRLNDLNEESSNVAEEPVWSYQAVEQQAINYVRPVIILGALKDRINDELVNRDPSKFSSCVPHTSRPPREGEVNGRDYYFVNKHNMEEDVKNNLFIEAGQFQNNLYGTSIQSVRDVANQGRHCILDVSGNAIRRLQSNANIQPISIFIKPSSAQQILELDSQLATNRQDDRAMSGEEAQAQYSRCHRIEQTFGDLFTQEISNVHSANDVLSKVYSIISRESQTPIWVPRH
Take B5: the binding entry in experiment [1] is reported as “no binding”.

B6: T26E3.3a (par-6), full-length, two-hybrid construct (protein, UniProt Q9NAN2 1-309)
chain: MSYNGSYHQNHHSTLQVKSKFDSEWRRFSIPMHSASGVSYDGFRSLVEKLHHLESVQFTLCYNSTGGDLLPITNDDNLRKSFESARPLLRLLIQRRGESWEEKYGYGTDSDKRWKGISSLMAQKPPKRSYSISNPEDFRQVSAIIDVDIVPEAHRRVRLCKHGQERPLGFYIRDGTSVRVTERGVVKVSGIFISRLVDGGLAESTGLLGVNDEVLEVNGIEVLGKTLDQVTDMMVANAHNLIITVKPANQRNTLSRGPSQQGTPNASEMSAATAAATGGIQRPMKMNGSSDGSYHPKQHDANDSDSGED
In the case of B6, in experiment [1], the binding result was “no binding”.

The values above are taken from article PMC3419730, “NRFL-1, the C. elegans NHERF Orthologue, Interacts with Amino Acid Transporter 6 (AAT-6) for Age-Dependent Maintenance of AAT-6 on the Membrane” (PLoS ONE, 2012).
